# The campaign covered roughly 310,000 compounds. About 2,200 (0.71%) showed an effect of 50% or more. The effect is printed as a negative number. The list shows a part of the results.
# Target: human ether-à-go-go-related gene (hERG) potassium channel (human, UniProt Q12809)
# Test: primary screen, population patch clamp on CHO cells stably expressing hERG
# Sequence of human ether-à-go-go-related gene (hERG) potassium channel (Q12809 whole entry, looked up): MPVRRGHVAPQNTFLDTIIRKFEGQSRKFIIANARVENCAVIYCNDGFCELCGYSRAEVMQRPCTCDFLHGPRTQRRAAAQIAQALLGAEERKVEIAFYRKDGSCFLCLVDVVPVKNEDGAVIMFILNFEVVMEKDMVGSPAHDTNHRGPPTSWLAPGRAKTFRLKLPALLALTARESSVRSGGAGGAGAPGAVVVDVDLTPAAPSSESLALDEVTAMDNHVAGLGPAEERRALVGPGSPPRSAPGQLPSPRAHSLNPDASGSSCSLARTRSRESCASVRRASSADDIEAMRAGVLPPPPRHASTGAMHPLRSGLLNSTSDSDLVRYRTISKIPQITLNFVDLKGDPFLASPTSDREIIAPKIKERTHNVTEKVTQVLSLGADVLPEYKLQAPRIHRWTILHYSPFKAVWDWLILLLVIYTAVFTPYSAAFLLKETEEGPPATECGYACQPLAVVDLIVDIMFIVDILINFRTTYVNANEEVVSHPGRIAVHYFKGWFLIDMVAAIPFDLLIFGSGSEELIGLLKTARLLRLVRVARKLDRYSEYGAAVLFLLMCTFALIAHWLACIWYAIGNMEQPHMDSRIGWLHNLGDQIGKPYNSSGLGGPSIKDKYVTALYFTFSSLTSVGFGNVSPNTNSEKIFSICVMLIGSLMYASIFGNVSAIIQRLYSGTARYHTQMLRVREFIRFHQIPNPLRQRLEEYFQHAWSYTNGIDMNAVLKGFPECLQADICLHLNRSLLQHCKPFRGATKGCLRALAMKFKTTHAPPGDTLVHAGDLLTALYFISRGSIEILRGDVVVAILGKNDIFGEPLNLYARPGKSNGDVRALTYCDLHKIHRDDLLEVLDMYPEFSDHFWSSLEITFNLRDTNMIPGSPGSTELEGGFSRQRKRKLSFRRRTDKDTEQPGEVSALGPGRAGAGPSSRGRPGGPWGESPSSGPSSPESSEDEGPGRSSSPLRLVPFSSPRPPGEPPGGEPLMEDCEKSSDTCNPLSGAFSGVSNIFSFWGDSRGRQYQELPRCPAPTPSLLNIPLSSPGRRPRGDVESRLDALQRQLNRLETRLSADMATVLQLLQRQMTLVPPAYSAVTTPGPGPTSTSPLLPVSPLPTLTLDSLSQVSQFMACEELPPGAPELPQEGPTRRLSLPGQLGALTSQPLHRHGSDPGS
row,SMILES,"hERG current change (%, negative = inhibition) at 1uM"
1,CC(C)[C@H](NC(=O)C1CCN(S(=O)(=O)c2ccc(F)cc2)CC1)C(=O)NCc1ccncc1,17%
2,COc1ccc(NC(=O)CC2C(=O)N(Cc3ccccc3)C(=S)N2CCN2CCOCC2)cc1 (centres unmarked),10%
3,CC(C(=O)NC1=NCCS1)N1C(=O)C2CC=CCC2C1=O (centres unmarked),11.8%
4,CC(=O)N1C(Nc2ccc(Cl)cc2)CCN1c1ccccc1 (centres unmarked),10.6%
5,O=C(N/N=C/c1ccc(-c2ccccc2[N+](=O)[O-])o1)[C@H]1C[C@@H]1c1ccccc1,19%
6,Cc1cccc(NC(=O)CSc2nc(=O)n3ccccc3n2)c1C,11.5%
7,Cc1c(NC(=O)c2ccc3c(c2)OCO3)cccc1-c1nc2ncccc2o1,14.5%
8,Cc1ccc(NCC(=O)N/N=C\c2ccc([N+](=O)[O-])o2)cc1,-1.98%
9,Cc1ccc(-c2ccc(SCC(=O)N3CCCc4ccccc43)nn2)cc1,-0.2%
10,N/C(=N\OC(=O)c1ccc(Cl)c([N+](=O)[O-])c1)c1ccccc1,18%
11,C=CCn1cnc2c(nnn2-c2ccc(C)c(C)c2)c1=O,5.5%
12,Nc1nc(SCCN2C(=O)c3ccccc3C2=O)n[nH]1,-33.6%
13,CCC(c1ccccc1)c1nnc(NC(=O)c2ccco2)s1 (centres unmarked),14.1%
14,CCCC1CCC(C(=O)n2nc(N)c3cc4ccc(OC)cc4nc32)CC1 (centres unmarked),11.9%
15,CCOc1ccc(N/C(C)=C\C(=O)c2ccc3c(c2)OCCO3)cc1,-1.61%
16,Cc1ccc(C)c(NC2=NCC(=O)N2C2CCCCC2)c1,15%
17,CSC1=C(C#N)C(c2ccccc2C)C(C#N)=C(N)N1 (centres unmarked),9.04%
18,CCOC(=O)c1[nH]nc(N)c1NC(=O)c1ccc(Cl)cc1Cl,8.3%
19,COCCNC(=S)N1CCC(NC(=O)c2ccco2)CC1,6.24%

row,SMILES,"hERG current change (%, negative = inhibition) at 1uM"
1,CCOC(=O)c1ccc2c(c1)nc(-c1ccc(F)cc1)c1nccn12,7.83%
2,O=C(NC1CCCCC1)C1CC(=O)N(CCc2ccccc2)C1 (centres unmarked),-7.54%
3,C/C1=C\[C@@H](C)C/C=C/[C@H]2[C@@H]3O[C@]3(C)[C@@H](C)[C@H]3[C@H](Cc4c[nH]c5ccccc45)NC(=O)[C@]32C(=O)/C=C/C(=O)[C@@H]1O,13.7%
4,CC(C)CC(c1nnnn1C1CCCCC1)N1CCN(c2ncccn2)CC1 (centres unmarked),11.6%
5,Cc1cc(C(=O)Nc2ccc3c(c2)OCCO3)co1,12.5%
6,Clc1ccc(-c2nnc3sc(-c4ccc(Br)o4)nn23)c(Cl)c1,9.59%
7,Cc1nc(NS(=O)(=O)c2ccccc2)sc1NC(=O)Nc1ccccc1,19.3%
8,CCCc1ccc2oc(C(=O)N3CCN(c4cnccn4)CC3)c(C)c2c1,-5.34%
9,CCCNC(=O)c1ccc(C)c(NC(=O)C2=C(C)OCCS2)c1,12.2%
10,O=C1NCC(COc2cccc3ccccc23)O1 (centres unmarked),16.5%
11,COc1ccc(NC(=O)CN(C)C(=O)c2cccc3ccccc23)cc1,8.34%
12,Cn1cc(/C=C(\C#N)C(=O)Nc2ncc(Cc3ccc(Cl)cc3)s2)c2ccccc21,8.9%
13,Cc1cc(CNC(=O)c2cc(COc3c(F)cccc3F)on2)nn1C,13.9%
14,Cc1cnc(CNC(=O)CC2C(=O)NCCN2Cc2cccc(F)c2F)cn1 (centres unmarked),13.5%
15,Cc1nn(-c2cccc(Cl)c2)nc1C(=O)O,4.45%
16,C=C1CCC[C@]2(C)C[C@H]3OC(=O)C(CN(Cc4ccc(OC)c(OC)c4)CC(C)O)[C@H]3CC12 (some centres unmarked),4.47%
17,Cc1ccc(OCc2nnc(SCC(=O)N3CCOCC3)n2C)cc1,18.4%
18,C=CCOc1ccccc1CNc1ccc2c(c1)OCCO2.Cl,4.19%
19,CC(=O)Nc1ccc(S(=O)(=O)NCCC(=O)NNC(=O)c2ccccc2O)cc1,1.2%

row,SMILES,"hERG current change (%, negative = inhibition) at 1uM"
1,CSc1ccccc1NC(=O)CSc1nnc(COc2ccccc2)o1,2.68%
2,CN1C(=O)c2ccc(NC(=O)CCS(=O)(=O)c3ccccc3)cc2C1=O,-1.99%
3,CCCCc1cc(=O)oc2c(C)c(OCC(=O)NCCN3CCOCC3)ccc12,-77.1%
4,CCOC(=O)C1CCCN(c2nc3ccccc3nc2C(C#N)C(=O)OC(C)C)C1 (centres unmarked),16.1%
5,CC(C)C(=O)NNC(=O)CSc1ncnc2c1cnn2-c1ccccc1Cl,13.9%
6,O=C(NN1CCOCC1)c1cc(-c2ccc(Cl)c(Cl)c2)nc2ccccc12,15.3%
7,O=C(O)CCN1C(=O)C2C3C=CC(C3)C2C1=O (centres unmarked),14.6%
8,Cc1ccc(C)c2nc3sc(C(=O)N4CCOCC4)c(N)c3cc12,14.7%
9,O=C(O)c1c(C(=O)O)c(-c2ccc(Br)cc2)n2c1CSC2,11.8%
10,CCCC(=O)Nc1ccc2oc(-c3ccncc3)nc2c1,6.75%
11,COc1ccc(OC)c(C(=O)NC(CC(N)=O)c2ccc(N3CCCCCC3)c([N+](=O)[O-])c2)c1 (centres unmarked),4.41%
12,N#CCc1c(C#N)c(N)nc(N2CCCC(CO)C2)c1C#N (centres unmarked),3.2%
13,O=C(NCCCN1CCOCC1)c1cc(-c2cccc(O)c2)on1,10.2%
14,O=C1c2cccc3cccc(c23)C(=O)N1Cc1ccco1,15%
15,N#Cc1cc(-c2ccc(Cl)cc2)cn(Cc2c(Cl)cccc2Cl)c1=O,-1.66%
16,COc1ccc2c(c1[N+](=O)[O-])CCC/C2=N/OC(=O)c1ccccc1SC,8.44%
17,COc1ccc(C(=O)Nc2cc3c(cc2C#N)OCO3)cc1S(=O)(=O)NCc1ccco1,4.44%
18,O=C(Nc1ccc2c(c1)Cc1ccccc1-2)c1ccncc1,13.6%
